Data published in publication PMC12040169 (PLOS Biology, 2025).
This is one part of the list.

System: T1, C. trachomatis L2/434/Bu expressing GFP (CTL2-GFP)
T1 construct: L2/434/Bu GFP intracellular growth in HeLa cells
Parameters: species or system HeLa; C. trachomatis total inclusion area by high-content imaging, normalised to DMSO
Settings: total inclusion area; 28.5 h, 10 µM; inhibitor
How it was run: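 Host cell viability was gauged from Hoechst-stained nuclei counts, while chlamydial growth was taken from total inclusion area and inclusion number per well. Cells were fixed and imaged by high-content microscopy once bulk GFP and resorufin fluorescence had been measured.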

Q: Which “% of control remaining” value does the source give for COc1cc(-c2ccc(NCCn3cc[nH]c3=O)nc2)cc(OC)c1OC [CBK036907] here?
A: 140.078

Q: With Cc1cc(O)ccc1Nc1cc(-c2cc3ccccc3s2)ncn1 [CBK091057] as the compound, how does the “% of control remaining” value read?
A: 62.3602

Q: Which “% of control remaining” value does the source give for O=C(NCCNc1cnccn1)c1cccc(Cl)c1Cl [CBK305727] here?
A: 70.4677

Q: CN(C)Cc1ccc(C(=O)N2CCCC2(C)C(=O)N(C)C)cc1 (centres unmarked) [CBK281955] was tested. Which “% of control remaining” value did it give?
A: 102.393

Q: Which “% of control remaining” value does the source give for O=C(NC(Cc1ccsc1)c1cccnc1)C1CCOCC1 (centres unmarked) [CBK285110] here?
A: 103.759

Q: How did the “% of control remaining” value turn out when COc1ccc([C@@]23CC[C@H](NC(=O)Nc4cccc(C(F)(F)F)c4F)C[C@@H]2CN(C)C3)cc1OC [CBK063200A] was run?
A: 52.7563

Q: How did the “% of control remaining” value turn out when c1ccc(Oc2cccc(OCCCN3CCCCC3)c2)cc1 [CBK261781] was run?
A: 32.198

Q: For Cc1ccc(C(=O)Nc2ccc(C)nc2C)cn1 [CBK200289], which “% of control remaining” value is on record?
A: 110.126

Q: For CCc1nc2c(OCc3ccc(Cl)cc3)cccn2c1N(C=O)CC(=O)N(C)C [CBK147518], which “% of control remaining” value is on record?
A: 101.357

Q: With COc1cccc(C(=O)NC(c2ccc(OC)c(OC)c2)c2cc(Cl)c3cccnc3c2O)c1 (centres unmarked) [CBK264048] as the compound, how does the “% of control remaining” value read?
A: 110.313

Q: Which “% of control remaining” value does the source give for CCCN(CC1CCCO1)C(=O)c1cnn(-c2ccc(F)cc2)c1 (centres unmarked) [CBK283317] here?
A: 97.3946

Q: With CNC(=O)C1(Cc2ccc(-c3ccccc3)cc2)CCN(C(=O)Cc2ccccc2F)CC1 [CBK285768] as the compound, how does the “% of control remaining” value read?
A: 121.09

Q: With CCc1ccc(S(=O)(=O)Nc2cccnc2)cc1 [CBK287782] as the compound, how does the “% of control remaining” value read?
A: 88.8565

Q: With CC1=NN(C(=O)c2ccc(Cl)cc2)C(C)(C)C1 [CBK058904] as the compound, how does the “% of control remaining” value read?
A: 100.081

Q: NC(=O)CSc1nnc(COc2ccc(Br)cc2)n1-c1ccccc1 [CBK267277] was tested. Which “% of control remaining” value did it give?
A: 100.205

Q: O=C1c2ccc(Oc3ccc4c(c3)C(=O)N(c3ccncc3)C4=O)cc2C(=O)N1c1ccncc1 [CBK261399] was tested. Which “% of control remaining” value did it give?
A: 94.0433

Q: COCc1ccc(C(=O)N2CCCC(c3cc4ncccc4[nH]3)C2)o1 (centres unmarked) [CBK282106] was tested. Which “% of control remaining” value did it give?
A: 81.6404

Q: For COC(=O)c1ccccc1NC(=O)CCSc1ccc(Cl)cc1 [CBK263817], which “% of control remaining” value is on record?
A: 78.2718

Q: With O=C(O)CSc1nc2ccccc2n1CC(=O)O [CBK267128] as the compound, how does the “% of control remaining” value read?
A: 108.611

Q: Which “% of control remaining” value does the source give for CCCCc1ccc(-c2nccn2CC2CN(C(C)=O)CCO2)s1 (centres unmarked) [CBK307600] here?
A: 66.56

Q: With O=C1CC(N2CCC(c3nc4ccccc4o3)CC2)C(=O)N1Cc1cccs1 (centres unmarked) [CBK268735] as the compound, how does the “% of control remaining” value read?
A: 99.4219

Q: How did the “% of control remaining” value turn out when O=S(=O)(Nc1nc2cc(Cl)ccc2o1)c1ccc(Oc2ccccc2)cc1 [CBK050499] was run?
A: 110.616

Q: Cc1nc(NS(=O)(=O)c2ccc3ccccc3c2)sc1C(=O)O [CBK045548] was tested. Which “% of control remaining” value did it give?
A: 59.6676

Q: O=C(Cn1c(C2CCCNC2)cc2cccnc21)N1CCCCCC1 (centres unmarked) [CBK285014] was tested. Which “% of control remaining” value did it give?
A: 99.4483

Q: Which “% of control remaining” value does the source give for CCOc1ccc(CN2CCNC(=O)C2CC(=O)O)cc1 (centres unmarked) [CBK269242] here?
A: 43.8475

Q: For Cc1cc2oc(C(=O)Nc3nc(-c4ccc(S(=O)(=O)N5CCCC5)cc4)cs3)c(C)c2cc1C [CBK266309], which “% of control remaining” value is on record?
A: 120.96

Q: CC1CCN(Cc2ccc(-c3nnn(CC(=O)NCc4ccc(S(C)(=O)=O)cc4)n3)cc2)CC1 [CBK144152C] was tested. Which “% of control remaining” value did it give?
A: 95.1513

Q: Which “% of control remaining” value does the source give for Cc1cc(NC(=O)c2cccc(C(F)(F)F)c2)nc2c1c(=O)oc1ccccc12 [CBK291163] here?
A: 102.195

Q: How did the “% of control remaining” value turn out when Cc1nn(C)c(Cl)c1S(=O)(=O)Nc1cc(N2CCN(C(=O)OC(C)(C)C)CC2)c2occc2c1 [CBK067787] was run?
A: 92.0363

Q: CSCCCNC(=O)c1cnn2c(C)c(Cc3ccccc3C)c(C)nc12 [CBK162028] was tested. Which “% of control remaining” value did it give?
A: 96.3227

Q: CCC1=NN2C(=N)/C(=C/c3ccc(OC)cc3)C(=O)N=C2S1 [CBK101905] was tested. Which “% of control remaining” value did it give?
A: 104.192

Q: How did the “% of control remaining” value turn out when Cc1ccc(CN(CCCn2ccnc2)Cc2c[nH]cn2)s1 [CBK283136] was run?
A: 84.0959

Q: How did the “% of control remaining” value turn out when COc1cc(C(=O)O)ccc1OCC(=O)Nc1ccc(F)cc1 [CBK287101] was run?
A: 90.4516

Q: How did the “% of control remaining” value turn out when Cn1nccc1C(O)c1cc2n(n1)CCCN(C(=O)Cc1cccs1)C2 (centres unmarked) [CBK306930] was run?
A: 93.19

Q: For O=C(OCc1ccccc1)N1CCC2(CC1)CN(CCO)c1ccccc12 [CBK022627], which “% of control remaining” value is on record?
A: 81.2005

Q: O=C(Nc1nnc(-c2ccco2)o1)c1ccccc1 [CBK287420] was tested. Which “% of control remaining” value did it give?
A: 101.756

Q: Which “% of control remaining” value does the source give for Cc1ccccc1-n1c(SC(C)C)nc2sc3c(c2c1=O)CC(C)(C)OC3 [CBK091874] here?
A: 71.2472

Q: Cc1nc2c(c(=O)[nH]1)CCN(Cc1ccc(-c3ccccc3)cc1)C2 [CBK283970] was tested. Which “% of control remaining” value did it give?
A: 93.2932

Q: Which “% of control remaining” value does the source give for Cc1cccc(-c2ncc(NC(=O)COc3ccc([N+](=O)[O-])cc3)nc2-c2cccnc2)c1 [CBK037096] here?
A: 124.157

Q: With COc1cc(CNc2nnn[nH]2)cc(Br)c1OCc1ccc(Cl)cc1 [CBK300496] as the compound, how does the “% of control remaining” value read?
A: 96.5495

Q: COC(=O)C1CCCN1CC(=O)NCc1ccc(OCC(N)=O)cc1 (centres unmarked) [CBK304970] was tested. Which “% of control remaining” value did it give?
A: 43.6287

Q: How did the “% of control remaining” value turn out when CCN1CCN(c2c(Cl)cccc2NC(=O)c2ccc(-c3cccc([N+](=O)[O-])c3)o2)CC1 [CBK268596] was run?
A: 108.884

Q: For Cc1ocnc1C(=O)NCC1CCN(c2ccccc2F)C1 (centres unmarked) [CBK304671], which “% of control remaining” value is on record?
A: 83.4878

Q: How did the “% of control remaining” value turn out when CCS(=O)(=O)N1CCC(NC(=O)NC(C)c2ccccc2Cl)CC1 (centres unmarked) [CBK242304] was run?
A: 63.3122

Q: How did the “% of control remaining” value turn out when CSc1nc(NC(=O)C(C)c2ccccc2)cc(N2CCNCC2)n1 (centres unmarked) [CBK026742T] was run?
A: 90.1208

Q: O=c1[nH]c(=O)c2cc(S(=O)(=O)N3CCCC(CN4CCCC4)C3)ccc2[nH]1 (centres unmarked) [CBK286392] was tested. Which “% of control remaining” value did it give?
A: 135.018

Q: With C=CCn1c(-c2sc(NC(=O)c3ccc(C)c(C)c3)nc2C)n[nH]c1=S [CBK295294] as the compound, how does the “% of control remaining” value read?
A: 113.382

Q: How did the “% of control remaining” value turn out when Cc1cc(C)c(S(=O)(=O)Nc2nnc(C(F)(F)F)s2)c(C)c1 [CBK045507] was run?
A: 101.772

Q: Which “% of control remaining” value does the source give for COCC(=O)N1CCC(c2cc3nc(C(F)(F)F)ccc3[nH]2)CC1 [CBK282185] here?
A: 79.2999

Q: For c1ccc(Oc2ccccc2-c2cc(N3CCN(c4ccccn4)CC3)ncn2)cc1 [CBK091083], which “% of control remaining” value is on record?
A: 110.428
